Among the data in the RNAGym collection of RNA variant scans (doi:10.7554/elife.90254) are self-cleavage values, retold here.

B1: LINE1-mini (parent)
chain: GGCAGAGCUCAACACAGCGUGGCAAAGUGGCUGUGGCUAGACUGCC

Read counts are not given, so values of variants with three or more changes are uncertain.

In the data set the parent is B1. Briefly: self-cleavage, relative activity (ratio to wild type); higher = more cleavage; in vitro, sequencing; the parent is a self-cleaving ribozyme.
As to U20C G22C G27U U38G C45G, the self-cleavage was found to be 0.03.
As to C3U C31G C42A, the self-cleavage is 0.02.
As to G1U A25C C31A, the self-cleavage was 0.03.
For the variant G1U G22U G33C G36A, the self-cleavage stood at 0.01.
Take G5A G22U U28G G29A: the self-cleavage was found to be 0.26.
A12U G27U C42G: the self-cleavage was 0.01.
Take C13A G30A G44A: the self-cleavage was determined as 0.09.
For the variant A4G C18U G22C, the self-cleavage amounted to 0.13.
A6U G7A A25G: the self-cleavage worked out at 0.06.
To A6G G7A C10U C13G C42A belongs 0.01; to A6U C8U G22C G40A, 0.19.
As to A6C C8A G33U G36A G40A, the self-cleavage is 0.16.
On to G5C A16G G36C, for which the self-cleavage was determined as 0.09.
As for A12G C13G C46A, the self-cleavage was determined as 0.01.
For A16G A24U G33U, the self-cleavage came out at 0.
The figure for U9G C15G G29U G44U is 0; for G29U C31G A39G G40U it is 0.04.
With U9C G17U U32A, the self-cleavage was determined as 0.08.
For the variant U9A U34G C42A, the self-cleavage was 0.05.
Take A11G G22U G30A G33A G36A C45A: the self-cleavage was 0.01.
Turning to C8U C13A C23A G33A G44U, the self-cleavage amounted to 0.18.
For C3A G5C C42U, the self-cleavage was determined as 0.06.
Regarding C10A G29A U34A, the self-cleavage is 0.03.
To A11G G27A C46U belongs 0.02; to C3U C15G U38G A41G G44U, 0.01; to C8G A16C G19A A25U G30U, 0.02.
As to G5C G19C U20C C45A, the self-cleavage was 0.03.
The figure for C3G G5C C8A A39U is 0.21; for G5A A11C G22A C23G A25G G30A it is 0.02.
The figure for C3U A6C U9A C13U A14U G33A is 0.06; for A12U G30U G40C it is 0.14; for C10U G27A A39G C45U it is 0.04.
The figure for A6C G19A G22C U43G is 0.
Regarding G7U U20C C42G, the self-cleavage was 0.05.
For G1A A11U G22A, the self-cleavage was found to be 0.87.
Take U9A G21U G40C G44A: the self-cleavage was found to be 0.28.
The figure for U20A G22C C23U C45G is 0.08.
The figure for G17A C18U A39C is 0.04.
Consider G7C A12C A26U, for which the self-cleavage turned out to be 0.
The figure for A4C A25C U34A is 0.05; for C15U C42G G44U it is 0.07.
On to A26C C31A C42G, for which the self-cleavage is 0.04.
Consider G7A A14G C15G U34A C46G, for which the self-cleavage stood at 0.06.
In the case of A25U G33C U34G, the self-cleavage stood at 0.
Regarding C3U C13G C23A G35U G40C, the self-cleavage is 0.27.
With G5A A25G C37U, the self-cleavage turned out to be 0.02.
To C13G G30C U34C G40C belongs 0.05.
On to A16U G21U C23G U28A C45U, for which the self-cleavage came to 0.53.
Consider G22U A41U C46G, for which the self-cleavage was 0.49.
With A6G A12U G44C C46A, the self-cleavage worked out at 0.02.
As for C15A G17A G36A, the self-cleavage was 0.07.
As for A6C G29C G33A G44A, the self-cleavage came to 0.02.
To G7U U34A G40U belongs 0.08; to G17A G19U G33U, 0.02.
On to C18G G30C C45U, for which the self-cleavage stood at 0.59.
Turning to G5A C8A A16U G17U U32A C42U, the self-cleavage amounted to 0.32.
As for G2U C23G U32C, the self-cleavage turned out to be 0.02.
C18G G35U C42U: the self-cleavage came to 0.05.
Take G5A A6G G7U U9A A25C G30A: the self-cleavage worked out at 0.06.
Turning to A25C A39U G40C, the self-cleavage came out at 0.07.
With G1U C15U C18U G29U A39G, the self-cleavage came out at 0.01.
C8U G21U A24C: the self-cleavage stood at 0.11.
Take G33C G40C G44U: the self-cleavage is 0.1.
For C10A C13G A24G C31U C42G, the self-cleavage came out at 0.02.
For the variant G1U C3A C31A C45G, the self-cleavage stood at 0.26.
For G5U A41C C45U, the self-cleavage worked out at 0.09.
To G5U G21C G22C U28A belongs 0.03; to C3A A4G G5A C10G A26G G29U G40A, 0.01; to G1A G5U C31G G40C, 0.04.
Regarding C15G G30C G35A, the self-cleavage was 0.01.
C10U U20G G33U: the self-cleavage worked out at 0.07.
For the variant G2U C3G G21A, the self-cleavage was 0.39.
With C3A G35A C45G, the self-cleavage is 0.12.
The figure for U20G G22C U38C is 0.06; for G17A C31U G33U U34G G36U U43A it is 0.01; for U28A G33U G36C it is 0.05.
In the case of A25U G27A G44A, the self-cleavage came out at 0.3.
For C8A A11G C31A, the self-cleavage came to 0.02.
Regarding G27U U32C U34A G40C A41G C46G, the self-cleavage turned out to be 0.06.
As for G1U C3U U34G C46G, the self-cleavage worked out at 0.14.
With G1A C18G G35C C46A, the self-cleavage came out at 0.03.
Take A4C G17A C18U U20C G36A G40C: the self-cleavage is 0.02.
Take G2U C13U A25C A26U U38A G40U: the self-cleavage was determined as 0.11.
C18U C23A U38G: the self-cleavage is 0.01.
To C10A A14G G19U belongs 0.01; to A4U C18G C42G, 0.12; to C10G G19C A26C, 0.05.
In the case of G2A G7U G19A C31G, the self-cleavage was 0.66.
For C10A G17A C23A, the self-cleavage worked out at 0.03.
Consider C13U C18U A39G, for which the self-cleavage came to 0.37.
The figure for C10A C13A G30C G35U is 0.04.
For G5A A25U C31U, the self-cleavage came to 0.
C8U G21A G29U C37A: the self-cleavage was determined as 0.13.
With G2U G5A G30C U38A, the self-cleavage is 0.04.
For the variant C3A G33C A39G, the self-cleavage was 0.14.
For A6G G7A A12C U28G G40A, the self-cleavage stood at 0.
Take G7C A12G A14C G33A C46G: the self-cleavage is 0.19.
For the variant U9A G19U U28G G33A, the self-cleavage is 0.08.
In the case of C13A A24U G35C C45U, the self-cleavage was determined as 0.06.
Regarding C3G U9A A39C, the self-cleavage was 0.03.
Consider G2A A24C G30C C45U C46G, for which the self-cleavage was 1.13.
C15U G21C A41G: the self-cleavage came to 0.24.
With G5C A6U G7C G22A G44A, the self-cleavage is 0.2.
As to G7C A12C A16C G35A U38G G40A C42G, the self-cleavage stood at 0.06.
G1U G2C A24G C31A C46A: the self-cleavage turned out to be 0.01.
To G2U G7U A39C belongs 0.01; to G17C G22U A24C A39C, 0.11.
Consider U20C A39U A41U, for which the self-cleavage came to 0.4.
As for A6G C15G G17U C42A, the self-cleavage was found to be 0.03.
As for A11G C15G C31G U43G G44C, the self-cleavage worked out at 0.
The figure for G2U A16U C37U is 0.
To G5C C23A G40U belongs 0.46.
Consider G5A C15A G21U G29C G30A, for which the self-cleavage amounted to 0.03.
Turning to G1U C3A G21U, the self-cleavage worked out at 1.68.
Turning to G1C A14C A25C, the self-cleavage came to 0.04.
In the case of G27U U34C G35A C46A, the self-cleavage turned out to be 0.15.
As for C15A G21A G22C, the self-cleavage stood at 0.11.
As for C10A A39G G40A, the self-cleavage is 0.02.
The figure for G2A A26U U32A C45A is 0.1.
In the case of G1C G27A C37U U43A, the self-cleavage stood at 0.03.
In the case of G2U A6C C8G U28C, the self-cleavage was determined as 0.02.
Take A11U C15U C31A C42U: the self-cleavage is 0.
With G2C C13G A24U, the self-cleavage is 0.03.
C15A G17U C18A G36C C46U: the self-cleavage was found to be 0.02.
To G17C U34G U38G A39C belongs 0.12.
To A4U C13U A41G belongs 0.09.
Consider G2A G17A U34A, for which the self-cleavage amounted to 0.04.
As to G1C U28G C45G, the self-cleavage is 0.06.
The figure for G2U G21A C31A is 0.01; for C18A A26C G44A it is 0.07; for G7U G22U G29C it is 0.04.
Take C8G G19A G30C C31G G36A: the self-cleavage turned out to be 0.
As to G7U C10U A12U U43G G44U C45G, the self-cleavage turned out to be 0.01.
The figure for C37G C42G G44U is 0.01.
For A14G C15U C18G A39C A41G, the self-cleavage was determined as 0.04.
For the variant C18U G21A G30U C31U G40U, the self-cleavage amounted to 0.01.
For the variant G5U C13A U38C, the self-cleavage was determined as 0.03.
Consider U20C G30A C45A, for which the self-cleavage amounted to 0.32.
G1C G7U C10U: the self-cleavage was determined as 0.01.
To G17A G22U G30U C37A belongs 0.04.
G1A A26G G33U: the self-cleavage stood at 0.26.
Turning to A4C A11G A16G C18A G36U, the self-cleavage turned out to be 0.01.
Regarding C8U A24C A25U G29C, the self-cleavage was 0.03.
With G2C G19A U38C, the self-cleavage amounted to 0.22.
On to C13G G17U C18A, for which the self-cleavage is 0.05.
In the case of G7C C10U C37G, the self-cleavage amounted to 0.05.
Take C8U C10G C18A G30A: the self-cleavage stood at 0.01.
To A4G U9C A16U U20G belongs 0.05; to G5U G27C G30C C37U G40A, 0.26.
C10A A12C A24G G35A: the self-cleavage amounted to 0.
For U9G G21U A41U, the self-cleavage is 0.09.
For G29A G30C G40U, the self-cleavage amounted to 0.06.
Regarding C3G G27A G30A, the self-cleavage was determined as 0.2.
The figure for G1C C23U U28C is 0.13; for U9A G21U G44U it is 0.13; for C3U C13U A16G G19C A24G it is 0.02.
Regarding C3A C15U C31U G36U, the self-cleavage came out at 0.16.
The figure for G7A C18G C23G C42U is 0.04; for C3G G7A A12G A14G C18A A25G G44C it is 0.01; for G2A C31G G36C G40C it is 0.01.
As for G22C C23A G40C, the self-cleavage turned out to be 0.02.
A4G C13A C18G A25C U38C: the self-cleavage turned out to be 0.04.
For the variant G7A G27U C46G, the self-cleavage is 0.14.
With G2C C31U C45A, the self-cleavage was determined as 0.03.
The figure for U28C U34C G44U is 0.04.
To G1A A6C C45A belongs 0.3; to U9G A14G C15G C18G G22A G36C, 0.02.
